In the BET-seq Pho4 binding data (Le et al. 2018):
The list shows a part of the results. The energies were worked out here from pooled read counts, against the library average; single values are noisy.

What follows are sequences tested against T1, Pho4 (S. cerevisiae) (UniProt P07270) (assay: relative binding free energy (BET-seq); higher = weaker binding). Details: reference: library average.
T1 sequence: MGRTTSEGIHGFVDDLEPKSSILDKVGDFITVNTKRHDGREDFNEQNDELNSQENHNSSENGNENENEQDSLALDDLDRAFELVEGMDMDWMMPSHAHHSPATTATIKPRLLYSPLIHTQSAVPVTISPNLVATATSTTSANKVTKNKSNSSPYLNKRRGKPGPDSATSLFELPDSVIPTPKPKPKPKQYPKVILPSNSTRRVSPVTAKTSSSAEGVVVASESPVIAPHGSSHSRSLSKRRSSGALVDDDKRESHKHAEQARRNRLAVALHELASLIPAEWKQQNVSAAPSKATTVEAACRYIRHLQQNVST

Sequence | relative binding free energy
TGGGGCACGTGGGCGG | -0.2 kcal/mol
GACAACACGTGAGGGG | 0.26 kcal/mol
GTCTACACGTGATGTT | 0.28 kcal/mol
GTGTACACGTGGTCGT | 0.19 kcal/mol
TTCGGCACGTGTGTTG | -0.03 kcal/mol
TATTACACGTGGTACG | -0.05 kcal/mol
CTGAGCACGTGCGGGG | -0.19 kcal/mol
TTGACCACGTGTGGTG | 0.02 kcal/mol
TCGGGCACGTGGAAGG | -0.13 kcal/mol
TCATACACGTGAGGTT | 0.19 kcal/mol
TTTGACACGTGATGGT | 0.15 kcal/mol
GTTGTCACGTGATGAA | 0.22 kcal/mol
GGAAGCACGTGTAGGG | -0.2 kcal/mol
GCTGTCACGTGTACGG | 0.16 kcal/mol
GTTAGCACGTGTTTTA | 0.02 kcal/mol
CTATGCACGTGTAGGT | -0.08 kcal/mol
TAAAACACGTGGAGGG | 0.04 kcal/mol
GTTGACACGTGGCGGA | 0.13 kcal/mol
TATGACACGTGCTTGT | -0.14 kcal/mol
TTACTCACGTGGTTGT | 0.13 kcal/mol
AATGTCACGTGTCATA | 0.14 kcal/mol
TTCGGCACGTGATGTT | 0 kcal/mol
AGGTACACGTGGGAGT | 0 kcal/mol

Sequence | relative binding free energy
GTCTACACGTGGGTTT | 0 kcal/mol
TCGGACACGTGTAGTG | 0.04 kcal/mol
TGTTGCACGTGGGATA | -0.05 kcal/mol
TGAGGCACGTGGCGTT | -0.15 kcal/mol
GTGAGCACGTGGGCGA | -0.22 kcal/mol
TTAGTCACGTGGAAGT | 0.15 kcal/mol
TGGGGCACGTGCGAAG | -0.19 kcal/mol
AGTGTCACGTGATGTA | 0.11 kcal/mol
TTTGACACGTGATTTA | 0.05 kcal/mol
AGTGTCACGTGGGCTA | -0.11 kcal/mol
TGGAGCACGTGTTAGT | 0.03 kcal/mol
TGAGGCACGTGTGAAG | -0.07 kcal/mol
AGAGACACGTGGAGAG | 0.09 kcal/mol
CTTGTCACGTGAGAGG | 0.24 kcal/mol
ATGTCCACGTGTAAGG | 0.21 kcal/mol
GGGCTCACGTGTGAGG | 0.28 kcal/mol
ATTTACACGTGGGCTT | 0.03 kcal/mol
CGGTACACGTGGAATT | 0.29 kcal/mol
AAAGACACGTGGGTGG | -0.21 kcal/mol
TTTTCCACGTGGGCAT | 0.01 kcal/mol
TAGGGCACGTGTTCTG | -0.16 kcal/mol
TAAGACACGTGTGTGG | -0.01 kcal/mol
GTGTTCACGTGAATGC | 0.57 kcal/mol

Sequence | relative binding free energy
GTTTTCACGTGATGTG | 0.41 kcal/mol
TCTGGCACGTGGCAGG | -0.13 kcal/mol
ACGTACACGTGGGGCG | -0.08 kcal/mol
CGTACCACGTGGGTTT | -0.09 kcal/mol
AAATTCACGTGTGTGA | 0.22 kcal/mol
GGTTGCACGTGTAGCC | 0.07 kcal/mol
TAGGTCACGTGTGGAC | 0.11 kcal/mol
AGCGGCACGTGAAGGT | 0.2 kcal/mol
GACGGCACGTGGGTGA | -0.12 kcal/mol
TGGTTCACGTGCAAGT | 0.23 kcal/mol
TTTCTCACGTGCGTTG | 0.07 kcal/mol
GGACACACGTGAGGTT | 0.24 kcal/mol
TTGTTCACGTGTAGCG | 0.25 kcal/mol
ACATTCACGTGGTTGT | 0.21 kcal/mol
ATATGCACGTGGAGTT | -0.05 kcal/mol
CAGGGCACGTGATTTG | -0.16 kcal/mol
AGGTGCACGTGCACGG | -0.08 kcal/mol
TTGACCACGTGTGGGT | -0.14 kcal/mol
TCGATCACGTGGATGT | 0.22 kcal/mol
GGACACACGTGTATGT | 0.02 kcal/mol
GGTATCACGTGAGGTA | 0.33 kcal/mol
GATTTCACGTGTTGCG | 0.39 kcal/mol
TGAAGCACGTGTGTGC | -0.15 kcal/mol

Sequence | relative binding free energy
GGAGGCACGTGTGAAC | 0.07 kcal/mol
TTGAACACGTGGTTAA | 0.01 kcal/mol
TGGGTCACGTGAGTAG | 0.35 kcal/mol
ACAAGCACGTGTTATG | 0.07 kcal/mol
AGTTTCACGTGTACTT | 0.23 kcal/mol
ATAAACACGTGAGTAT | 0.16 kcal/mol
TGTGTCACGTGCGTGT | 0 kcal/mol
CGTGGCACGTGATATG | 0 kcal/mol
TTTGACACGTGGTCAA | -0.13 kcal/mol
AGTTTCACGTGGGGTT | 0.14 kcal/mol
CATTTCACGTGGAATT | 0.37 kcal/mol
GACTACACGTGGGGTG | -0.08 kcal/mol
GGAATCACGTGAGATG | 0.34 kcal/mol
TTGGGCACGTGCGTCT | -0.1 kcal/mol
TTGGCCACGTGATTTA | 0 kcal/mol
GAAGGCACGTGTCTTG | -0.02 kcal/mol
TTTGGCACGTGCGTCT | -0.28 kcal/mol
ATACACACGTGTTGTG | -0.06 kcal/mol
GCGGGCACGTGCATGG | -0.11 kcal/mol
TTTACCACGTGTGGGT | 0.07 kcal/mol
ATATTCACGTGTCGAT | 0.18 kcal/mol
TTTCACACGTGAAGGG | 0.38 kcal/mol
ATTCTCACGTGGGCTG | 0.07 kcal/mol

Sequence | relative binding free energy
GTAGGCACGTGAGTAG | 0.02 kcal/mol
TTGTCCACGTGATAGG | 0.19 kcal/mol
CGTTTCACGTGCATGG | 0.18 kcal/mol
AGTGTCACGTGTACTG | -0.17 kcal/mol
CCTTGCACGTGTGGTA | -0.04 kcal/mol
TTTCGCACGTGGTTTG | -0.24 kcal/mol
GTGCTCACGTGGGCTT | 0 kcal/mol
ATTGGCACGTGTAATT | 0.04 kcal/mol
TGTTTCACGTGTGGGG | 0.31 kcal/mol
ATGGGCACGTGGGCTG | -0.33 kcal/mol
TGCGACACGTGGGCTG | -0.22 kcal/mol
CTGTGCACGTGATGAT | 0.16 kcal/mol
TGATGCACGTGGGTAA | -0.14 kcal/mol
ACTGGCACGTGTCGTG | -0.11 kcal/mol
GGCTGCACGTGAGAGT | 0.14 kcal/mol
TTCTTCACGTGAGTGC | 0.44 kcal/mol
GAGGGCACGTGTCGTT | 0.06 kcal/mol
GGCGGCACGTGCCGGG | -0.24 kcal/mol
CGGCACACGTGAGGGG | 0.08 kcal/mol
TGTTTCACGTGATTTT | 0.35 kcal/mol
TTATACACGTGAATAG | 0.28 kcal/mol
TGGTTCACGTGGAGTA | 0.2 kcal/mol
TGAGTCACGTGAAAGG | 0.29 kcal/mol
